{"source": "PubChem BioAssay AID686979", "about": "(National Center for Advancing Translational Sciences (NCATS), 2013)", "note": "Several values for one entry are separate records, joined by “and”; a condition that tells them apart may be missing. Identical values can stand only once. In all, about 420,000 compounds went through this assay and about 50,000 (12%) were called active. The inconclusive results got no clear call from the source; some entries with a clear call stand among them for comparison. The call rests on the fitted dose curve; in most records, active means well fitted inhibition curve with a large enough effect; inconclusive means small, poorly fitted or top-dose-only effect; inactive means flat fitted curve, though single readings scatter. Potencies of inconclusive entries are left out as doubtful fits. On the % scale 0 is the no-effect control and ±100 the full control effect; potency means the concentration at half of the fitted maximal effect; tags describe the fitted curve by direction and shape."}
{"experiment": "qHTS for Inhibitors of human tyrosyl-DNA phosphodiesterase 1 (TDP1): qHTS in cells in presence of CPT; further: nearly all actives have a fitted effect of over 55% in size", "conditions": "chicken DT40 Tdp1-/-;hTDP1 cells + 20 nM CPT, ATP luminescence, 48 h; activity change, negative = growth inhibition: at 46.2 µM (top of the series)", "procedure,_shortened": "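Chicken DT40 Tdp1-/- cells complemented with human TDP1, 400 cells/well, exposed to compounds plus 20 nM camptothecin for at least 48 h at 37 C; viability read as ATP content by CellTiter-Glo luminescence.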"}
{"smiles": "Cc1ccc2c(c1)C1CN(C)CCC1N2C(=S)Nc1ccc(OC(F)F)cc1", "note": "(stereo unspecified)", "Potency": "inactive"}
{"smiles": "COc1cccc([C@@H]2Oc3ccc(OC)cc3C(=O)[C@H]2O)c1", "Potency": "active: 6.51 µM"}
{"smiles": "S=c1c2[nH]cnc2ncn1CCSc1ncnc2nc[nH]c12", "activity change, negative = growth inhibition": "inconclusive: -30.3% [inhibitor]"}
{"smiles": "CCOC(=O)c1sc(=S)n(-c2ccc(C)cc2)c1N", "Potency": "inconclusive [inhibitor, partial curve]"}
{"smiles": "CCOC(=O)C1CCCN(C2=NC(=O)/C(=C/c3ccc(O)c(OC)c3)S2)C1", "note": "(stereo unspecified)", "Potency": "inconclusive [inhibitor, single point]"}
{"smiles": "O=S(=O)(NCC1CCCO1)c1ccc(Oc2ccccc2)cc1", "note": "(stereo unspecified)", "Potency": "inconclusive [inhibitor, partial curve, poor fit]"}
{"smiles": "O=C(N/N=C/c1ccc2c(c1)OCO2)c1ccc(Cn2cc([N+](=O)[O-])cn2)o1", "Potency": "inactive"}
{"smiles": "Cc1cccc(NC(=O)Nc2cccc(Oc3c(F)c(F)c(F)c(F)c3F)c2)c1", "Potency": "inconclusive [inhibitor, single point]"}
{"smiles": "COCCCn1c(SCC(=O)n2c(C)c(C)c3ccccc32)nnc1-c1ccoc1C", "Potency": "inconclusive [inhibitor, single point]"}
{"smiles": "CCSc1nc2ccccc2c(=O)n1CCc1ccc(OC)c(OC)c1", "Potency": "active: 13 µM"}
{"smiles": "Cc1cccc(C(=O)Nc2ccc(C(=O)OCc3cc(=O)n4c(C)csc4n3)cc2)c1", "Potency": "inconclusive [inhibitor, single point]"}
{"smiles": "c1ccc(-c2ccccc2OCCCCn2ccnc2)cc1", "Potency": "active: 23.1 µM"}
{"smiles": "CC1=C(C(=O)OC(C)C)C(c2cccc(F)c2)N2C(=O)C(C)SC2=N1", "note": "(stereo unspecified)", "Potency": "inconclusive [inhibitor, single point]"}
{"smiles": "C=CCNS(=O)(=O)c1ccc2c(c1)n(C)c(=O)n2C", "Potency": "inactive"}
{"smiles": "O=C(/C=C/c1c(Cl)cccc1Cl)NCCc1ccccc1", "Potency": "inconclusive [inhibitor, partial curve]"}
{"smiles": "CC(C)(C)NC(=O)CN(Cc1ccc(F)cc1)C(=O)Cn1nnc(-c2ccc(F)cc2)n1", "Potency": "inconclusive [inhibitor, single point]"}
{"smiles": "Cc1ccccc1Cn1cc(CCC(=O)NCc2cccc(Br)c2)c2ccccc21", "Potency": "inconclusive [inhibitor, single point]"}
{"smiles": "Cc1ccc(NC(CC(=O)c2ccccc2)C(=O)O)cc1Cl", "note": "(stereo unspecified)", "activity change, negative = growth inhibition": "inconclusive: -34.6% [inhibitor]"}
{"smiles": "COc1ccc(/C=N/NC(=O)C(C)N(c2ccc(OC)cc2)S(C)(=O)=O)cc1", "note": "(stereo unspecified)", "Potency": "inconclusive [inhibitor, single point]"}
{"smiles": "COc1ccc(-c2csc(C(C)(O)c3cccc(F)c3)n2)cn1", "note": "(stereo unspecified)", "Potency": "active: 23.1 µM"}
{"smiles": "NCCc1nnc(SCc2c(F)cccc2Cl)o1", "Potency": "inactive"}
{"smiles": "Cn1nc(-c2ccccc2F)c2cc(C(=O)Nc3cc(F)ccc3F)sc21", "Potency": "inconclusive [inhibitor, partial curve]"}
{"smiles": "O=C(c1cnc2c(c1)COc1ccccc1-2)c1ccccc1O", "Potency": "inconclusive [inhibitor, single point]"}
{"smiles": "CC1CCCN(C(=O)CSc2nc3ccccc3o2)C1", "note": "(stereo unspecified)", "Potency": "inactive"}
{"smiles": "Cn1c(=O)c2c(SCCN3CCOCC3)nc(C3CCCC3)nc2n(C)c1=O", "Potency": "active: 16.4 µM"}
{"smiles": "O=c1ccc(-c2nc3ccccc3n2C(CCc2ccccc2)c2nc3ccccc3[nH]2)c[nH]1", "note": "(stereo unspecified)", "Potency": "inconclusive [inhibitor, single point]"}
{"smiles": "COc1cccc(C2(CC(=O)N3CCC(c4nc5ccccc5o4)CC3)CC(=O)N(C)C2=O)c1", "note": "(stereo unspecified)", "Potency": "inactive"}
{"smiles": "COc1ccccc1C(=O)Nc1nc2cc3c(cc2s1)OCO3", "activity change, negative = growth inhibition": "inconclusive: -33.7% [inhibitor]"}
{"smiles": "Cc1ccc(NC(=O)CN2CCC(C(=O)c3ccc4c(c3)OCCO4)CC2)cc1", "Potency": "inconclusive [inhibitor, single point]"}
{"smiles": "CCCOc1ccccc1C1C(C(=O)OC)=CN(C(C)C)C=C1C(=O)OC", "Potency": "inactive"}
{"smiles": "CC(C)c1cnc2c(c1SCC(=O)c1ccccc1)c(=O)n(C)c(=O)n2C", "Potency": "inconclusive [inhibitor, single point]"}
{"smiles": "O=C(CCC1COc2ccccc2O1)NCc1ccco1", "note": "(stereo unspecified)", "Potency": "inconclusive [inhibitor, single point]"}
{"smiles": "O=C(Nc1cccc(C(F)(F)F)c1)C1CCN(S(=O)(=O)c2ccc(N3CCCC3=O)cc2)CC1", "Potency": "active: 2.59 µM"}
{"smiles": "COc1ccc2c(c1OC)c(=O)n1c3ccc(OC(C)C(=O)NCCCN4CCOCC4)cc3c3ccnc2c31", "note": "(stereo unspecified)", "Potency": "active: 13 µM"}
{"smiles": "CCN1C(=O)[C@H]2[C@@H](c3ccc(SC4CCCCC4)cc3)N[C@@](CC(C)C)(C(=O)OC)[C@H]2C1=O", "Potency": "inconclusive [inhibitor, single point]"}
{"smiles": "COc1ccc2[nH]cc(CCNc3ncncc3-c3ccoc3)c2c1", "Potency": "active: 4.61 µM"}
{"smiles": "COc1ccc(S(=O)(=O)NCC(c2ccco2)N2CCN(c3ccc(F)cc3)CC2)cc1", "note": "(stereo unspecified)", "Potency": "inconclusive [inhibitor, single point]"}
{"smiles": "Cc1ccccc1-n1cc(CNC(=O)CN2Cc3ccccc3OC(C)C2)cn1", "note": "(stereo unspecified)", "Potency": "inconclusive [inhibitor, single point]"}
{"smiles": "COc1ccc(N2CCN(C(=O)CSc3nnc(-c4cccnc4)n3-c3ccc(F)cc3)CC2)cc1", "Potency": "inconclusive [inhibitor, single point]"}
{"smiles": "CCN(CC)C(=O)C12CC3CC(CC(Br)(C3)C1)C2", "Potency": "inactive"}
{"smiles": "Cc1cc(C)cc(NC(c2nnc(-c3cccc(F)c3)o2)c2ccc(F)cc2Cl)c1", "note": "(stereo unspecified)", "Potency": "inconclusive [inhibitor, single point]"}
{"smiles": "COc1cccc(NC(=O)CN(C)C(=O)CNC(=O)c2ccc(Oc3ccccc3)cc2)c1", "Potency": "inconclusive [inhibitor, single point]"}
{"smiles": "O=C(Nc1nnc(Cc2ccccc2)s1)c1ccco1", "Potency": "inactive"}
{"smiles": "O=C(Nc1cc(Cl)ccc1Cl)c1ccc(-c2ccccc2)cc1", "Potency": "inactive"}
{"smiles": "COc1ccc(-c2nc(-c3ccccc3)c(-c3cc([N+](=O)[O-])ccc3C)[nH]2)cc1OC", "Potency": "active: 23.1 µM"}
{"smiles": "COc1ccc(Cc2nc3ccc(C(=O)NCCc4ccc(OC)c(OC)c4)cc3o2)cc1", "Potency": "inconclusive [inhibitor, single point]"}
{"smiles": "Nc1ccc(C(=O)Nc2ccccc2N)cc1", "Potency": "active: 2.37 µM and active: 5.8 µM"}
{"smiles": "O=C(CSc1nnc(-c2cccs2)n1C1CC1)NC1CCS(=O)(=O)C1", "note": "(stereo unspecified)", "Potency": "inactive"}
{"smiles": "Cc1ccc(-n2ncc3c(SCC(=O)NNC(=O)c4ccco4)ncnc32)cc1", "Potency": "inactive"}
{"smiles": "CN(Cc1ccccc1)c1nc2c(c(=O)[nH]c(=O)n2C)n1Cc1ccccc1", "Potency": "inactive"}
{"smiles": "C[C@](N)(C(=O)O)c1ccc(-c2nn[nH]n2)cc1", "Potency": "inactive"}
{"smiles": "CC1CCCC(C)N1C(=S)SCC(=O)O", "note": "(stereo unspecified)", "Potency": "inactive"}
{"smiles": "CC(C)(C)n1cnc2cc(NS(=O)(=O)c3ccccc3)ccc21", "Potency": "inactive"}
{"smiles": "O=C(NCCCSc1ccccc1)c1cccnc1", "Potency": "inactive"}
{"smiles": "Cc1cc(C)c(S(=O)(=O)Nc2cc(Cl)c3oc4c(c3c2)C(=O)CCC4)cc1C", "Potency": "inactive"}
{"smiles": "CN1/C(=C\\C=C(/C#N)C(=O)Nc2ccccc2F)C(C)(C)c2ccccc21", "Potency": "inactive"}
{"smiles": "Cn1c(=O)n(C)c2cc(CNCc3ccccc3)ccc21", "Potency": "inactive"}
{"smiles": "O=C(CN1C(=O)S/C(=C/c2cccn2-c2ccc(O)cc2)C1=O)N1CCCC1", "Potency": "inconclusive [inhibitor, partial curve]"}
{"smiles": "O=C(NCCO)/C(=C\\c1ccco1)NC(=O)c1ccco1", "Potency": "inactive"}
{"smiles": "O=C(COc1ccc2c(c1)C(=O)CC1(CCCCC1)O2)NCc1ccccc1", "Potency": "inconclusive [inhibitor, single point]"}
{"smiles": "Clc1ccc(SCCCCN2CCNCC2)cc1", "Potency": "active: 20.6 µM"}
{"smiles": "Cc1cc(C(=O)Cn2cnc3ccccc3c2=O)c(C)n1C1CC1", "Potency": "inactive"}
{"smiles": "CCCCC1CC2=C(C(=O)OC(C)(C)O2)C(c2ccc3ccccc3c2)O1", "note": "(stereo unspecified)", "Potency": "inconclusive [inhibitor, single point]"}
{"smiles": "N/N=C(\\c1ccccc1)C12CN3CN(CN(C3)C1)C2", "Potency": "inconclusive [inhibitor, partial curve, poor fit]"}
{"smiles": "Cc1ccc(OCC(=O)NNC(=O)C2CCN(c3ncccn3)CC2)cc1", "Potency": "inactive"}
{"smiles": "CCc1ccc(C(O)c2ncc(-c3cccc(C(F)(F)F)c3)[nH]2)cc1", "note": "(stereo unspecified)", "Potency": "inconclusive [inhibitor, single point]"}
{"smiles": "CCCn1c(SCC(N)=O)nnc1-c1ccco1", "Potency": "inactive"}
{"smiles": "CCCn1c(SCC(=O)c2ccc3c(c2)OCCO3)nnc1C(C)C", "Potency": "active: 23.1 µM"}
{"smiles": "Cc1ccc(CNS(=O)(=O)c2cc(Br)cc3c2N(C(=O)C2CC2)CC3)cc1", "Potency": "inactive"}
{"smiles": "COc1ccc(OCC(=O)N/N=C2\\CCCc3ccccc32)cc1", "Potency": "inconclusive [inhibitor, single point]"}
{"smiles": "Cc1cccc(CNc2ccc(C(CC(N)=O)NC(=O)c3ccccc3)cc2[N+](=O)[O-])c1", "note": "(stereo unspecified)", "Potency": "inconclusive [inhibitor, single point]"}
{"smiles": "Nc1nnc(SCC(=O)Nc2cc(C(F)(F)F)ccc2N2CCOCC2)s1", "Potency": "inconclusive [inhibitor, single point]"}
{"smiles": "CCOc1cc(/C=C(\\C#N)c2nc3ccccc3[nH]2)ccc1OC(C)C(=O)O", "note": "(stereo unspecified)", "Potency": "inactive"}
{"smiles": "COc1ccc(-c2ccc(C(=O)Nc3cccc(F)c3)c3occc23)c(C)c1", "Potency": "inconclusive [inhibitor, partial curve, poor fit]"}
{"smiles": "Cc1ccc(Cn2c(=O)n(Cc3ccccc3)c(=O)c3c(C)c(C)sc32)cc1", "Potency": "inactive"}
{"smiles": "O=C(NCCCc1cnc[nH]1)NCCCN(Cc1ccc(Cl)cc1)c1ccc(Br)cn1", "Potency": "active: 2.24 µM"}
